Paper PMC9911399, “Two distinct binding modes provide the RNA-binding protein RbFox with extraordinary sequence specificity”
Where a chain is given by its changes, count along the chain named. Some of the results follow.

T1: RBFOX1 RRM RbFoxmut (Fox-RRM*) (Homo sapiens, UniProt Q9NWB1 109-208, R118D;E147R;N151S;E152T)
T1 sequence: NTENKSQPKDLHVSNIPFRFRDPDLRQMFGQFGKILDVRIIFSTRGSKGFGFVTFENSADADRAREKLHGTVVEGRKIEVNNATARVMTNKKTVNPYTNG

B1: AUGUGUC (DNA:RNA)
RNA: GGGAGACCGGAAUUCAGAUUGUCCAUGUGUCUUAAAUCCCGUCGUAGCCACCA
DNA 1: CAATCTGAATTCCGGTCTCCC
DNA 2: TGGTGGCTACGACGGGATT
B2: GACGAGA (DNA:RNA)
RNA: GGGAGACCGGAAUUCAGAUUGUCCGACGAGAUUAAAUCCCGUCGUAGCCACCA
DNA 1: CAATCTGAATTCCGGTCTCCC
DNA 2: TGGTGGCTACGACGGGATT
B3: UGAGGCA (DNA:RNA)
RNA: B2 RNA with G25U, A26G, C27A, A29G, G30C
DNA 1: CAATCTGAATTCCGGTCTCCC
DNA 2: TGGTGGCTACGACGGGATT
B4: AAGAGGU (DNA:RNA)
RNA: B1 RNA with U26A, U28A, U30G, C31U
DNA 1: CAATCTGAATTCCGGTCTCCC
DNA 2: TGGTGGCTACGACGGGATT
B5: AGCGUGU (DNA:RNA)
RNA: B2 RNA with G25A, A26G, A29U, A31U
DNA 1: CAATCTGAATTCCGGTCTCCC
DNA 2: TGGTGGCTACGACGGGATT
B6: GGGGUUU (DNA:RNA)
RNA: B1 RNA with A25G, U26G, U28G, G29U, C31U
DNA 1: CAATCTGAATTCCGGTCTCCC
DNA 2: TGGTGGCTACGACGGGATT
B7: AUCCUGU (DNA:RNA)
RNA: B1 RNA with G27C, U28C, G29U, U30G, C31U
DNA 1: CAATCTGAATTCCGGTCTCCC
DNA 2: TGGTGGCTACGACGGGATT
B8: GACGCGC (DNA:RNA)
RNA: B2 RNA with A29C, A31C
DNA 1: CAATCTGAATTCCGGTCTCCC
DNA 2: TGGTGGCTACGACGGGATT
B9: CAAGAUA (DNA:RNA)
RNA: B2 RNA with G25C, C27A, G30U
DNA 1: CAATCTGAATTCCGGTCTCCC
DNA 2: TGGTGGCTACGACGGGATT
B10: CAUUCAA (DNA:RNA)
RNA: B2 RNA with G25C, C27U, G28U, A29C, G30A
DNA 1: CAATCTGAATTCCGGTCTCCC
DNA 2: TGGTGGCTACGACGGGATT
B11: ACACCUC (DNA:RNA)
RNA: B1 RNA with U26C, G27A, U28C, G29C
DNA 1: CAATCTGAATTCCGGTCTCCC
DNA 2: TGGTGGCTACGACGGGATT
B12: GCCACCG (DNA:RNA)
RNA: B2 RNA with A26C, G28A, A29C, G30C, A31G
DNA 1: CAATCTGAATTCCGGTCTCCC
DNA 2: TGGTGGCTACGACGGGATT
B13: CGCGACC (DNA:RNA)
RNA: B2 RNA with G25C, A26G, G30C, A31C
DNA 1: CAATCTGAATTCCGGTCTCCC
DNA 2: TGGTGGCTACGACGGGATT
B14: UUUGUCC (DNA:RNA)
RNA: B1 RNA with A25U, G27U, U28G, G29U, U30C
DNA 1: CAATCTGAATTCCGGTCTCCC
DNA 2: TGGTGGCTACGACGGGATT
B15: GCGCAAG (DNA:RNA)
RNA: B2 RNA with A26C, C27G, G28C, G30A, A31G
DNA 1: CAATCTGAATTCCGGTCTCCC
DNA 2: TGGTGGCTACGACGGGATT
B16: GGUAGAU (DNA:RNA)
RNA: B1 RNA with A25G, U26G, G27U, U28A, U30A, C31U
DNA 1: CAATCTGAATTCCGGTCTCCC
DNA 2: TGGTGGCTACGACGGGATT
B17: UCUAUGC (DNA:RNA)
RNA: B1 RNA with A25U, U26C, G27U, U28A, G29U, U30G
DNA 1: CAATCTGAATTCCGGTCTCCC
DNA 2: TGGTGGCTACGACGGGATT
B18: GCAAGGC (DNA:RNA)
RNA: B1 RNA with A25G, U26C, G27A, U28A, U30G
DNA 1: CAATCTGAATTCCGGTCTCCC
DNA 2: TGGTGGCTACGACGGGATT
B19: GCGCAAC (DNA:RNA)
RNA: B1 RNA with A25G, U26C, U28C, G29A, U30A
DNA 1: CAATCTGAATTCCGGTCTCCC
DNA 2: TGGTGGCTACGACGGGATT
B20: CUGUCCU (DNA:RNA)
RNA: B1 RNA with A25C, G29C, U30C, C31U
DNA 1: CAATCTGAATTCCGGTCTCCC
DNA 2: TGGTGGCTACGACGGGATT

target: T1, RBFOX1 RRM RbFoxmut (Fox-RRM*); experiment: EMSA; HiTS-Eq, 1 nM pool, 10 min; buffer printed only for the single-RNA assays: 10 mM Tris pH 7.5, 150 mM NaCl, 3.4 mM EDTA, 0.001% NP-40, 30 C; settings: tags: His6 N-terminal (pET28a); label: 5' 32P
Method in brief: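 Relative association constants, normalised to the cognate motif, were derived by comparing read counts of each RNA species with those of the control reaction. The RNA sequenced was the free fraction, separated by 8% native PAGE after a 10 min equilibration in 50 µL of 1 nM 5′-radiolabelled RNA (7 randomized nucleotides) with increasing concentrations of purified wild-type or mutant RbFox RRM.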

Point of comparison: B4, binding signal 0.102 KA relative to UGCAUGU. Against it:
- B1 — higher, 0.289 KA relative to UGCAUGU
- B2 — lower, 0.0967 KA relative to UGCAUGU
- B3 — higher, 0.136 KA relative to UGCAUGU
- B5 — higher, 0.16 KA relative to UGCAUGU
- B6 — lower, 0.0858 KA relative to UGCAUGU
- B7 — higher, 0.139 KA relative to UGCAUGU
- B8 — the same, 0.102 KA relative to UGCAUGU
- B9 — higher, 0.132 KA relative to UGCAUGU
- B10 — lower, 0.0789 KA relative to UGCAUGU
- B11 — lower, 0.0553 KA relative to UGCAUGU
- B12 — lower, 0.101 KA relative to UGCAUGU
- B13 — lower, 0.0878 KA relative to UGCAUGU
- B14 — lower, 0.101 KA relative to UGCAUGU
- B15 — higher, 0.118 KA relative to UGCAUGU
- B16 — higher, 0.104 KA relative to UGCAUGU
- B17 — lower, 0.0911 KA relative to UGCAUGU
- B18 — lower, 0.0585 KA relative to UGCAUGU
- B19 — lower, 0.0609 KA relative to UGCAUGU
- B20 — lower, 0.0706 KA relative to UGCAUGU
